# In the supplement of paper PMC8728848:
# The list shows a part of the results.
# B1: Cohesin-hDCIR (Homo sapiens) (protein)
# chain: LDDLDAVRIKVDTVNAKPGDTVRIPVRFSGIPSKGIANCDFVYSYDPNVLEIIEIEPGDIIVDPNPDKSFDTAVYPDRKIIVFLFAEDSGTGAYAITKDGVFATIVAKVKEGAPNGLSVIKFVEVGGFANNDLVEQKTQFFDGGANVGDTTEPATPTTPVTTPTTTDDLDAASQKYSQLLEKKTTKELVHTTLECVKKNMPVEETAWSCCPKNWKSFSSNCYFISTESASWQDSEKDCARMEAHLLVINTQEEQDFIFQNLQEESAYFVGLSDPEGQRHWQWVDQTPYNESSTFWHPREPSDPNERCVVLNFRKSPKRWGWNDVNCLGPQRSVCEMMKIHLHHHHHH
# Experiments:
# Experiment in all cases: glycan array binding signal (z-score within array); higher = stronger binding
# Conditions in all cases: glycan notation: IUPAC condensed, linker removed
# GlcNAc(b1-3)Man = target: GlcNAc(b1-3)Man
# Outline: (§1)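 Columns mapping to the same glycan were averaged after glycan names were converted to IUPAC-condensed notation. The data come from 3228 arrays in the Consortium for Functional Glycomics database, limited to those with an available protein sequence. Binding is reported as a within-array Z-score averaged across arrays of one protein sequence and across linkers.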
# [1] = target: GlcNAc(b1-3)[GlcNAc(b1-4)][GlcNAc(b1-6)]GlcNAc
# Outline: as §1
# [2] = target: GlcNAc(b1-3)[GlcNAc(b1-6)]Gal(b1-4)GlcNAc
# Outline: as §1
# [3] = target: GlcNAc(b1-3)[GlcNAc(b1-6)]GalNAc
# Outline: as §1
# [4] = target: GlcNAc(b1-4)Gal(b1-4)GlcNAc
# Outline: as §1
# GlcNAc(b1-4)GlcNAc = target: GlcNAc(b1-4)GlcNAc
# Outline: as §1
# [5] = target: GlcNAc(b1-4)GlcNAc(b1-4)GlcNAc
# Outline: as §1
# [6] = target: GlcNAc(b1-4)GlcNAc(b1-4)GlcNAc(b1-4)GlcNAc(b1-4)GlcNAc
# Outline: as §1
# [7] = target: GlcNAc(b1-4)GlcNAc(b1-4)GlcNAc(b1-4)GlcNAc(b1-4)GlcNAc(b1-4)GlcNAc
# Outline: as §1
# [8] = target: GlcNAc(b1-4)[GlcNAc(b1-6)]GalNAc
# Outline: as §1
# [9] = target: GlcNAc(b1-6)Gal(b1-4)GlcNAc
# Outline: as §1
# GlcNAc(b1-6)GalNAc = target: GlcNAc(b1-6)GalNAc
# Outline: as §1
# [10] = target: GlcNAc6S(b1-3)Gal(b1-4)GlcNAc
# Outline: as §1
# Kdn(a2-3)Gal(b1-3)GalNAc = target: Kdn(a2-3)Gal(b1-3)GalNAc
# Outline: as §1
# Kdn(a2-3)Gal(b1-3)GlcNAc = target: Kdn(a2-3)Gal(b1-3)GlcNAc
# Outline: as §1
# Kdn(a2-3)Gal(b1-4)Glc = target: Kdn(a2-3)Gal(b1-4)Glc
# Outline: as §1
# Kdn(a2-3)Gal(b1-4)GlcNAc = target: Kdn(a2-3)Gal(b1-4)GlcNAc
# Outline: as §1
# [11] = target: Kdn(a2-3)Gal(b1-4)[Fuc(a1-3)]GlcNAc
# Outline: as §1
# Kdn(a2-6)Gal(b1-4)GlcNAc = target: Kdn(a2-6)Gal(b1-4)GlcNAc
# Outline: as §1
# [12] = target: Man(a1-2)Man(a1-2)Man(a1-3)Man
# Outline: as §1
# [13] = target: Man(a1-2)Man(a1-2)Man(a1-6)[Man(a1-3)]Man
# Outline: as §1
# Man(a1-2)Man(a1-3)Man = target: Man(a1-2)Man(a1-3)Man
# Outline: as §1
# [14] = target: Man(a1-2)Man(a1-3)[Man(a1-2)Man(a1-6)]Man
# Outline: as §1
# [15] = target: Man(a1-2)Man(a1-3)[Man(a1-2)Man(a1-6)]Man(a1-6)[Man(a1-2)Man(a1-2)Man(a1-3)]Man
# Outline: as §1
# [16] = target: Man(a1-2)Man(a1-3)[Man(a1-2)Man(a1-6)]Man(a1-6)[Man(a1-2)Man(a1-2)Man(a1-3)]Man(b1-4)GlcNAc(b1-4)GlcNAc
# Outline: as §1
# [17] = target: Man(a1-2)Man(a1-3)[Man(a1-6)]Man(a1-6)[Man(a1-2)Man(a1-3)]Man(b1-4)GlcNAc(b1-4)GlcNAc
# Outline: as §1
# [18] = target: Man(a1-2)Man(a1-6)[Man(a1-3)]Man(a1-6)[Man(a1-2)Man(a1-2)Man(a1-3)]Man
# Outline: as §1
# [19] = target: Man(a1-2)Man(a1-6)[Man(a1-3)]Man(a1-6)[Man(a1-2)Man(a1-2)Man(a1-3)]Man(b1-4)GlcNAc(b1-4)GlcNAc
# Outline: as §1
# Man(a1-3)[Man(a1-6)]Man = target: Man(a1-3)[Man(a1-6)]Man
# Outline: as §1
# [20] = target: Man(a1-3)[Man(a1-6)]Man(a1-6)[Man(a1-2)Man(a1-3)]Man(b1-4)GlcNAc(b1-4)GlcNAc
# Outline: as §1
# [21] = target: Man(a1-3)[Man(a1-6)]Man(a1-6)[Man(a1-3)]Man
# Outline: as §1
# [22] = target: Man(a1-3)[Man(a1-6)]Man(a1-6)[Man(a1-3)]Man(b1-4)GlcNAc(b1-4)GlcNAc
# Outline: as §1
# [23] = target: Man(a1-3)[Man(a1-6)]Man(b1-4)GlcNAc(b1-4)GlcNAc
# Outline: as §1
# [24] = target: Man(a1-3)[Man(a1-6)]Man(b1-4)GlcNAc(b1-4)[Fuc(a1-6)]GlcNAc
# Outline: as §1
# Man(a1-6)Man = target: Man(a1-6)Man
# Outline: as §1
# Man(b1-4)GlcNAc = target: Man(b1-4)GlcNAc
# Outline: as §1
# MurNAc(b1-4)GlcNAc = target: MurNAc(b1-4)GlcNAc
# Outline: as §1
# Neu5Ac(a2-3)Gal = target: Neu5Ac(a2-3)Gal
# Outline: as §1
binder,measurement,setting,value
B1,glycan array binding signal (z-score),GlcNAc(b1-3)Man,-0.284
same,glycan array binding signal (z-score),[1],-0.436
same,glycan array binding signal (z-score),[2],-0.625
same,glycan array binding signal (z-score),[3],-0.401
same,glycan array binding signal (z-score),[4],-0.214
same,glycan array binding signal (z-score),GlcNAc(b1-4)GlcNAc,-0.363
same,glycan array binding signal (z-score),[5],-0.508
same,glycan array binding signal (z-score),[6],-0.508
same,glycan array binding signal (z-score),[7],-0.594
same,glycan array binding signal (z-score),[8],-0.616
same,glycan array binding signal (z-score),[9],0.077
same,glycan array binding signal (z-score),GlcNAc(b1-6)GalNAc,4.02
same,glycan array binding signal (z-score),[10],-0.396
same,glycan array binding signal (z-score),Kdn(a2-3)Gal(b1-3)GalNAc,0.042
same,glycan array binding signal (z-score),Kdn(a2-3)Gal(b1-3)GlcNAc,-0.702
same,glycan array binding signal (z-score),Kdn(a2-3)Gal(b1-4)Glc,-0.606
same,glycan array binding signal (z-score),Kdn(a2-3)Gal(b1-4)GlcNAc,-0.662
same,glycan array binding signal (z-score),[11],-0.218
same,glycan array binding signal (z-score),Kdn(a2-6)Gal(b1-4)GlcNAc,-0.508
same,glycan array binding signal (z-score),[12],-0.287
same,glycan array binding signal (z-score),[13],-0.544
same,glycan array binding signal (z-score),Man(a1-2)Man(a1-3)Man,-0.462
same,glycan array binding signal (z-score),[14],-0.698
same,glycan array binding signal (z-score),[15],-0.684
same,glycan array binding signal (z-score),[16],-0.537
same,glycan array binding signal (z-score),[17],-0.687
same,glycan array binding signal (z-score),[18],-0.522
same,glycan array binding signal (z-score),[19],-0.537
same,glycan array binding signal (z-score),Man(a1-3)[Man(a1-6)]Man,-0.44
same,glycan array binding signal (z-score),[20],-0.324
same,glycan array binding signal (z-score),[21],-0.053
same,glycan array binding signal (z-score),[22],-0.56
same,glycan array binding signal (z-score),[23],-0.53
same,glycan array binding signal (z-score),[24],-0.665
same,glycan array binding signal (z-score),Man(a1-6)Man,3.2
same,glycan array binding signal (z-score),Man(b1-4)GlcNAc,-0.365
same,glycan array binding signal (z-score),MurNAc(b1-4)GlcNAc,-0.365
same,glycan array binding signal (z-score),Neu5Ac(a2-3)Gal,-0.332
